From paper PMC2745333 (Molecular Microbiology, 2009)

Assays:
SEC [1] = molecular target: the molecule itself; assay: SEC
SEC [2] = molecular target: the molecule itself; assay: SEC; remark: listed apart in the source

B1: PspF_(1−275)G133A (domain or fragment)
chain: not shown
With B1 the “stoichiometry N” value (SEC [1]) was 2 and the “stoichiometry N” value (SEC [2]) was 6.

B2: PspF_(1−275)L138A (domain or fragment)
chain: not shown
With B2 the “stoichiometry N” value (SEC [1]) was 2 and the “stoichiometry N” value (SEC [2]) was 6.

B3: PspF_(1−275)P137A (domain or fragment)
chain: not shown
For B3, the “stoichiometry N” value (SEC [1]) was 2 and the “stoichiometry N” value (SEC [2]) was 6.

B4: PspF_(1−275)P137T (domain or fragment)
chain: not shown
With B4 the “stoichiometry N” value (SEC [1]) was 2 and the “stoichiometry N” value (SEC [2]) was 6.

B5: PspF_(1−275)Q136A (domain or fragment)
chain: not shown
With B5 the “stoichiometry N” value (SEC [1]) was 2 and the “stoichiometry N” value (SEC [2]) was 6.

B6: PspF_(1−275)Q139A (domain or fragment)
chain: not shown
B6 was tested, and the “stoichiometry N” value (SEC [1]) was 2 and the “stoichiometry N” value (SEC [2]) was 6.

B7: PspF_(1−275)S135A (domain or fragment)
chain: not shown
With B7 the “stoichiometry N” value (SEC [1]) was 2 and the “stoichiometry N” value (SEC [2]) was 6.

B8: PspF_(1−275)V132A (domain or fragment)
chain: not shown
In the case of B8, the “stoichiometry N” value (SEC [1]) is reported as 2 and the “stoichiometry N” value (SEC [2]) is reported as 6.

Where two headings read alike, the source gives them in different places.
